Common to all, as to experiment: protein-binding microarray (PBM)
Common to all, as to conditions: PBM: ~300 nM protein, 6 mM HEPES pH 7.8, 80 mM KCl, 0.5 mM EDTA, 0.5 mM EGTA, 6% glycerol, 35 ng/ul poly-dIdC, 1% milk, 1 h, room temperature; Ap Aiptasia and Nv Nematostella (sea anemones) / Co Capsaspora / Aq Amphimedon (sponge) / Dm Drosophila / Hu human; RHD is the Rel homology domain; high values mean tight binding; most listed sequences are background and not binding sites; double strand, one strand shown

Test [1] addresses T1, GST-Ap-NF-kB RHD (UniProt A0A913YAJ5).
T1 sequence: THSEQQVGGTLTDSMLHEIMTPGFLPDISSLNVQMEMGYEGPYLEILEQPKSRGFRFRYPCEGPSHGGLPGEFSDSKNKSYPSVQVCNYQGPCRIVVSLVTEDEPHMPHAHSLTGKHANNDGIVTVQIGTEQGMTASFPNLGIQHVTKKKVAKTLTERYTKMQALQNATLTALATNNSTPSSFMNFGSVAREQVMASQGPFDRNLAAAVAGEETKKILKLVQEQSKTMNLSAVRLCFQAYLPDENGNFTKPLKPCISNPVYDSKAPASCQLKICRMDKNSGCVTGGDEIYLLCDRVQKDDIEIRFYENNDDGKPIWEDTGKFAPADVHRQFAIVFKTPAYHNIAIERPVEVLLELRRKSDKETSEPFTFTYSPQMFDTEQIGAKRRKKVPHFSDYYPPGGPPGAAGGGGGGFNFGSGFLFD

In test [2] the target is T2, GST-Co-NF-kB (UniProt F1ARL5).
T2 sequence: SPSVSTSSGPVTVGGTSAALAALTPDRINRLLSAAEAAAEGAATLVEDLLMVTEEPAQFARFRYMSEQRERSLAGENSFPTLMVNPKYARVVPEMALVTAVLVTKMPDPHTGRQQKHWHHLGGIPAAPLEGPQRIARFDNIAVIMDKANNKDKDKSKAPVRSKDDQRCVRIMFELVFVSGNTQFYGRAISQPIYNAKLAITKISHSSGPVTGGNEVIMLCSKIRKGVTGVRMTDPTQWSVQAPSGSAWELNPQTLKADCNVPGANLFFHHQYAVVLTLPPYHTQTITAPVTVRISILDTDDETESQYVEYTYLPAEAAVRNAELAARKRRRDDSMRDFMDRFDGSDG

In test [3] the target is T3, GST-Dm-Relish (UniProt Q94527).
T3 sequence: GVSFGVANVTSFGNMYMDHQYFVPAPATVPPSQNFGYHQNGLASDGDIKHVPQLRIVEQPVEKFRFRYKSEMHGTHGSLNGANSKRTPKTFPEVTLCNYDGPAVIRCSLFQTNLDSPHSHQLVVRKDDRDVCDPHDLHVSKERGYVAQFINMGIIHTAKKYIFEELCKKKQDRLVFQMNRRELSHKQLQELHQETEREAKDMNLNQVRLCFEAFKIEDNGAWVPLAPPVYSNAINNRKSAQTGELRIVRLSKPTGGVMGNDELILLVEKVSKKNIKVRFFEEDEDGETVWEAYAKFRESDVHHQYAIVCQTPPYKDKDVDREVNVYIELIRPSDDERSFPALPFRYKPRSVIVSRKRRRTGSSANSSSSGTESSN

Test [4] has as its target T4, GST-Aq-NF-kB (UniProt A9Y5G7).
T4 sequence: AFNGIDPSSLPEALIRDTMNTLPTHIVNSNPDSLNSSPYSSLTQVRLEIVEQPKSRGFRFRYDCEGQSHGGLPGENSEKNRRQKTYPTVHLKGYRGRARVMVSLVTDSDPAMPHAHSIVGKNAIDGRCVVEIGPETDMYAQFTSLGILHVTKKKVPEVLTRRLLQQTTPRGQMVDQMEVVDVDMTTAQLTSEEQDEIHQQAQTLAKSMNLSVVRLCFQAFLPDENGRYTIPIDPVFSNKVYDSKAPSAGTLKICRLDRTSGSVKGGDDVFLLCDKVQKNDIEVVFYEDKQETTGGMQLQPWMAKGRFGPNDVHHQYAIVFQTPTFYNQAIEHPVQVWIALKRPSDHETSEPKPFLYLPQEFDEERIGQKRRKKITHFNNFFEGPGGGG

In test [5] the target is T5, GST-Nv-NF-kB (Cys allele) (UniProt E5G601).
T5 sequence: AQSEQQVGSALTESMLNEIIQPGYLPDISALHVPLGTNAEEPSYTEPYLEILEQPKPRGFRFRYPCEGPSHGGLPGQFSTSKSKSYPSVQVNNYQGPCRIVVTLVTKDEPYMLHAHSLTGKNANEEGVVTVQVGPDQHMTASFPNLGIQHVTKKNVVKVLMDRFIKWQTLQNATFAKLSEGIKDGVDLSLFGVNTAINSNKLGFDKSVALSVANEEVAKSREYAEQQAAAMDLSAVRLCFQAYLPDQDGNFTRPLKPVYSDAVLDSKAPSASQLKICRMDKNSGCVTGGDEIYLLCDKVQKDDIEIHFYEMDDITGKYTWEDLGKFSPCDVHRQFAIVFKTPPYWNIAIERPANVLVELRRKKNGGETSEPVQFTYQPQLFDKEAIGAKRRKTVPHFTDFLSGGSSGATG

The list shows a part of the results, in another mix than the full data. For part of these data: The list includes weakly bound sequences.

Regarding “CCGATTAACATCAGGGGACCCCCTGATGTTAATCGGGTCTTGATTCGCTTGACGCTGCTG”, the binding signal in test [1] is 9.65 z-score; in test [2], 4.17 z-score; in test [3], 10.7 z-score; in test [4] it was 8.56 z-score.
As for “CCGATTAACATCAAAATCCCGGGTGATGTTAATCGGGTCTTGATTCGCTTGACGCTGCTG”, the binding signal worked out at 3.32 z-score in test [1], 1.42 z-score in test [2], 6.58 z-score in test [3] and 3.23 z-score in test [4].
On to “CCGATTAACATCAGGGGAAGCACTGATGTTAATCGGGTCTTGATTCGCTTGACGCTGCTG”, for which the binding signal in test [1] amounted to 5.88 z-score; in test [2], 4.4 z-score; in test [3], 9.95 z-score; in test [4] it was 6.83 z-score.
Regarding “CCGATTAACATCAGTTTCCCAAATGATGTTAATCGGGTCTTGATTCGCTTGACGCTGCTG”, the binding signal came out at 0.893 z-score in test [1], 2.19 z-score in test [2] and 1.17 z-score in test [4].
For the sequence “CCGATTAACATCAGATAATTCCCTGATGTTAATCGGGTCTTGATTCGCTTGACGCTGCTG”, the binding signal in test [1] came to 5.7 z-score; in test [2] it was 4.01 z-score; in test [3] it was 3.74 z-score; in test [4] it was 7.02 z-score.
With “CCGATTAACATCAGGAAATTGCCTGATGTTAATCGGGTCTTGATTCGCTTGACGCTGCTG”, the binding signal was -0.349 z-score in test [1], -0.11 z-score in test [2], -0.155 z-score in test [3] and 0.153 z-score in test [4].
In the case of “CCGATTAACATCAGGGACTCCCCTGATGTTAATCGGGTCTTGATTCGCTTGACGCTGCTG”, the binding signal in test [1] is 11.3 z-score; in test [2], 4.68 z-score; in test [3], 10.3 z-score; in test [4] it was 9.57 z-score.
As to “CCGATTAACATCAGGGAGTCACCTGATGTTAATCGGGTCTTGATTCGCTTGACGCTGCTG”, the binding signal in test [1] amounted to 3.25 z-score; in test [2], 0.992 z-score; in test [4], 3.63 z-score.
Turning to “CCGATTAACATCAGTTCCCCCCATGATGTTAATCGGGTCTTGATTCGCTTGACGCTGCTG”, the binding signal amounted to 6.36 z-score in test [1], 8.97 z-score in test [2], 3.62 z-score in test [3] and 3.91 z-score in test [4].
Turning to “CCGATTAACATCACCTTGAACGGTGATGTTAATCGGGTCTTGATTCGCTTGACGCTGCTG”, the binding signal was -0.354 z-score in test [1], 0.33 z-score in test [2] and 0.542 z-score in test [4].
Regarding “CCGATTAACATCAGCATTCCCAATGATGTTAATCGGGTCTTGATTCGCTTGACGCTGCTG”, the binding signal in test [1] is 0.584 z-score; in test [2], 1.08 z-score; in test [3] it was 0.39 z-score; in test [4] it was 0.985 z-score.
“CCGATTAACATCAATGCACCCCCTGATGTTAATCGGGTCTTGATTCGCTTGACGCTGCTG”: the results for the binding signal in test [1], in test [3] and in test [4] were 4.19 z-score, 3.29 z-score and 3.4 z-score, respectively.
Consider “CCGATTAACATCAAGAACCTTCTTGATGTTAATCGGGTCTTGATTCGCTTGACGCTGCTG”, for which the binding signal is -0.896 z-score in test [1], -0.395 z-score in test [2], -0.267 z-score in test [3] and -0.322 z-score in test [4].
Taken in the same sequence, the figures for “CCGATTAACATCAAGGAATTTCCTGATGTTAATCGGGTCTTGATTCGCTTGACGCTGCTG” were 0.638 z-score, 0.535 z-score, 2.04 z-score and 4.35 z-score.
Taken in the same sequence, the figures for “CCGATTAACATCAGCTTGGGAAATGATGTTAATCGGGTCTTGATTCGCTTGACGCTGCTG” were 0.921 z-score, 2.33 z-score, 0.0846 z-score and 0.966 z-score.
Take “CCGATTAACATCAGGTAAATACCTGATGTTAATCGGGTCTTGATTCGCTTGACGCTGCTG”: the binding signal is 0.597 z-score in test [1], -0.675 z-score in test [2], 4.77 z-score in test [3] and 4.2 z-score in test [4].
As for “CCGATTAACATCAGGAAATAACCTGATGTTAATCGGGTCTTGATTCGCTTGACGCTGCTG”, the binding signal in test [1] was 0.652 z-score; in test [2], -0.297 z-score; in test [3], 3.31 z-score; in test [4], 4.91 z-score.
Taken in the same sequence, the figures for “CCGATTAACATCAGGAAACCCCCTGATGTTAATCGGGTCTTGATTCGCTTGACGCTGCTG” were 11.2 z-score, 3.13 z-score, 10.1 z-score and 10.5 z-score.
Taken in the same sequence, the figures for “CCGATTAACATCAGGGAAGCCCATGATGTTAATCGGGTCTTGATTCGCTTGACGCTGCTG” were 1.18 z-score, 0.584 z-score, 8.29 z-score and 3.64 z-score.
For the sequence “CCGATTAACATCACAAATTTCCCTGATGTTAATCGGGTCTTGATTCGCTTGACGCTGCTG”, the figures for the binding signal in test [1], in test [2] and in test [4] were 4.62 z-score, 5.22 z-score and 6.5 z-score, respectively.
Taken in the same sequence, the figures for “CCGATTAACATCACGGGATTTTCTGATGTTAATCGGGTCTTGATTCGCTTGACGCTGCTG” were 5.11 z-score, 1.98 z-score and 5.2 z-score.
As for “CCGATTAACATCAAAAAGACCCCTGATGTTAATCGGGTCTTGATTCGCTTGACGCTGCTG”, the results for the binding signal in test [5], in test [2] and in test [4] were 4.44 z-score, 1.92 z-score and 5.55 z-score, respectively.
Consider “CCGATTAACATCAAAAATACCCCTGATGTTAATCGGGTCTTGATTCGCTTGACGCTGCTG”, for which the binding signal in test [5] is 8.45 z-score; in test [4] it was 7.5 z-score.
Taken in the same sequence, the figures for “CCGATTAACATCAGGGATTTCCATGATGTTAATCGGGTCTTGATTCGCTTGACGCTGCTG” were 3.8 z-score and 5.39 z-score.
As for “CCGATTAACATCAAACCCCCCCCTGATGTTAATCGGGTCTTGATTCGCTTGACGCTGCTG”, the values for the binding signal in test [5] and in test [4] were 5.16 z-score and 5.35 z-score, respectively.
For the sequence “CCGATTAACATCATATTTCCCCATGATGTTAATCGGGTCTTGATTCGCTTGACGCTGCTG”, the binding signal amounted to 7.45 z-score in test [5] and 5.08 z-score in test [4].
Turning to “CCGATTAACATCAACCCCCCCCATGATGTTAATCGGGTCTTGATTCGCTTGACGCTGCTG”, the binding signal was found to be 4.32 z-score in test [5] and 4.01 z-score in test [4].
Take “CCGATTAACATCACGGAAACCCCTGATGTTAATCGGGTCTTGATTCGCTTGACGCTGCTG”: the binding signal in test [5] turned out to be 4.37 z-score; in test [2] it was 2.13 z-score; in test [4], 5.38 z-score.
As to “CCGATTAACATCAAGTATTTCCCTGATGTTAATCGGGTCTTGATTCGCTTGACGCTGCTG”, the binding signal in test [5] amounted to 5.18 z-score; in test [4], 5.42 z-score.

Source of the values: publication PMC5700166.
